Values joined by “and” are separate entries in the source; they are usually repeats but may differ in a detail not shown here. Equal values may be shown once. The campaign covered roughly 420,000 compounds. About 64,000 (15%) were called active. This list was built around the results that the source calls inconclusive (neither active nor inactive); the mix of calls is not that of the screen. Calls follow the shape of the dose curve; as a rule, active = well fitted inhibition curve with a large enough effect; inconclusive = small, poorly fitted or top-dose-only effect; inactive = flat fitted curve, though single readings scatter. Where the call is inconclusive, the potency comes from a doubtful curve fit.
Experiment: qHTS for Inhibitors of human tyrosyl-DNA phosphodiesterase 1 (TDP1): qHTS in cells in absence of CPT; also: nearly all actives have a fitted effect of over 55% in size
Settings: DT40 Tdp1-/- hTDP1 cells, no CPT, ATP luminescence, 48 h; activity change, negative = growth inhibition: at 46.2 µM (top of the series) unless noted
In short: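 Readout: luminescence from CellTiter-Glo after 30 min in the dark at RT. Cells: DT40 Tdp1-/- with stable hTDP1, 400/well. Exposure: compounds alone, ≥48 hr, 37 °C.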
In the case of `COc1cccc(-c2nnc(SCC(=O)N(C(C)C)C(C)C)o2)c1`, the Potency is reported as inconclusive: 13 µM [inhibitor, partial curve]. With `CCOc1ccc(Nc2ncnc3ccc([N+](=O)[O-])cc23)cc1` the Potency was active: 6.51 µM. With `c1ccc(-n2ncc3c(NCc4ccc5c(c4)OCO5)ncnc32)cc1` the Potency was inconclusive: 11.6 µM [inhibitor, partial curve]. In the case of `COC(=O)C(NC(=O)c1ccccc1)C(C)(C)SCc1ccccc1` (configuration not stated), the Potency is reported as active: 18.4 µM. For `Cc1oc2cc([N+](=O)[O-])c(O)c([N+](=O)[O-])c2c1C(=O)c1ccc(Cl)cc1`, the Potency was inconclusive: 23.1 µM [inhibitor, single point]. In the case of `CC(=O)c1ccc(-c2cnc3c(NC=O)cc(-c4cccc(NS(C)(=O)=O)c4)cn23)cc1`, the Potency is reported as active: 20.6 µM. With `Cc1ccc(C(=O)N2CCC(N3CCC(C(=O)N4CCOCC4)CC3)CC2)cc1C` the “activity change, negative = growth inhibition” value was inactive: -4.03%. In the case of `Cc1nn(Cc2ccccc2)c(C)c1NC(=O)CSc1n[nH]c(C)c1[N+](=O)[O-]`, the Potency is reported as inconclusive: 29.1 µM [inhibitor, single point]. For `Cn1cccc1Cc1nnc(SCC(=O)Nc2ccc3c(c2)OCO3)n1CCc1ccccc1`, the activity change, negative = growth inhibition was inconclusive: -30.3% [inhibitor]. For `O=C(CSc1nnc(-c2ccccc2)o1)c1cccc([N+](=O)[O-])c1`, the Potency was inconclusive: 6.51 µM [inhibitor, single point]. With `CC(C)N1CN(c2ccccc2)C(=S)N(c2ccccc2)C1` the Potency was active: 23.1 µM. With `CCOC(=O)Cc1csc(NC(=O)CSc2nc(N)c3c(C)c(C)sc3n2)n1` the Potency was inconclusive: 16.4 µM [inhibitor, single point]. For `COc1ccc(S(=O)(=O)NCC(c2ccc3c(c2)OCO3)N2CCOCC2)cc1C` (configuration not stated), the Potency was inconclusive: 10.3 µM [inhibitor, partial curve]. With `Oc1ccc(N=Nc2cccc(Cl)c2)cc1C=Nc1ccc(N2CCOCC2)cc1` the Potency was inconclusive: 23.1 µM [inhibitor, single point]. For `CC(=O)c1c(C)cc(C)c(CSc2nc(C)cc(=O)[nH]2)c1C`, the Potency was inconclusive: 14.6 µM [inhibitor, partial curve]. With `O=C(CCNS(=O)(=O)c1ccccc1F)N1CCN(C/C=C/c2ccccc2)CC1` the Potency was inconclusive: 29.1 µM [inhibitor, single point]. For `COC(=O)c1cc(S(=O)(=O)N2CCN(c3cccc(C)c3)C(C)C2)cn1C` (configuration not stated), the Potency was inconclusive: 5.17 µM [inhibitor, single point]. For `CCCc1nc2ccc(C)cn2c1Cc1ccccc1OC`, the Potency was active: 20.6 µM. With `CCOC(=O)CC(=O)Nc1c(C)cc(C)cc1C` the “activity change, negative = growth inhibition” value was inactive: 5.39%. In the case of `NC(=O)c1ccccc1NC(=O)c1ccc(-c2ccc(Br)cc2)o1`, the Potency is reported as inconclusive: 7.31 µM [inhibitor, partial curve, poor fit]. For `O=C(Cn1ncc2c3ccccc3n(Cc3ccc(Cl)cc3)c2c1=O)NCc1ccccn1`, the Potency was inconclusive: 13 µM [inhibitor, partial curve]. In the case of `O=C(NCc1ccco1)c1ccc(COc2cc(Cl)ccc2Cl)cc1`, the Potency is reported as inconclusive: 23.1 µM [inhibitor, partial curve, poor fit]. In the case of `CC(C)n1c(SCC(=O)Nc2ccccc2)nc2c1c(=O)n(C)c(=O)n2C`, the Potency is reported as inconclusive: 20.6 µM [inhibitor, partial curve]. In the case of `C=CCn1cc(C(=O)NCCOC)c(=O)c2cc(S(=O)(=O)N3CCCCCC3)ccc21`, the Potency is reported as inconclusive: 18.4 µM [inhibitor, single point]. For `CC(=O)Nc1nn(CC(C)C)c2nc3ccc(C)cc3cc12`, the Potency was inconclusive: 29.1 µM [inhibitor, single point]. For `COc1ccc2c(OC)c3ccoc3nc2c1OC`, the Potency was inconclusive: 11.9 µM [inhibitor, partial curve, poor fit] and inconclusive: 29.1 µM [inhibitor, single point]. With `CCCc1nc2cccnc2n1C1CCN(C(=O)CC2NC(=O)c3ccccc32)CC1` (configuration not stated) the “activity change, negative = growth inhibition” value was inactive: -13.3%. In the case of `Fc1ccccc1N1CCN(C2CCCN(Cc3cccc(C(F)(F)F)c3)C2)CC1` (configuration not stated), the Potency is reported as active: 16.4 µM. With `O=C1NC(Nc2nc3ccccc3s2)(C(F)(F)F)C(=O)N1C1CCCCC1` (configuration not stated) the Potency was inconclusive: 23.1 µM [inhibitor, single point]. For `CCN(CC)CCCNC(=O)c1ccc2c(=O)n(CCc3ccccc3)c(=O)[nH]c2c1`, the Potency was inconclusive: 23.1 µM [inhibitor, single point]. With `O=C(c1ccc(F)cc1)N(NC(=O)C(O)(c1ccccc1)c1ccccc1)c1ccccc1` the Potency was inconclusive: 23.1 µM [inhibitor, single point]. In the case of `O=C(NCc1cccc(OC(F)(F)F)c1)c1ccc2c(c1)S(=O)(=O)c1cc(Cl)ccc1C2=O`, the “activity change, negative = growth inhibition” value is reported as inactive: -0.959%. With `CSc1ccc(CN(C)CC(=O)Nc2cccc(Br)c2)cc1` the Potency was inconclusive: 16.4 µM [inhibitor, partial curve]. With `COc1cc(NC(=O)CSCC(=O)N(C)C2CCCCC2)cc(OC)c1` the “activity change, negative = growth inhibition” value was inactive: -19.1%. For `O=C(NCc1ccccc1)C1c2ccccc2OCC(=O)N1CCCN1CCOCC1` (configuration not stated), the “activity change, negative = growth inhibition” value was inactive: -1.27%. In the case of `O=C(NCCc1ccccc1F)c1[nH]c(C(F)(F)F)nc1-c1ccccc1`, the “activity change, negative = growth inhibition” value is reported as inactive: -30%. In the case of `CC1OC(C(C)(C)C)Cc2[nH][nH]c(=O)c21` (configuration not stated), the “activity change, negative = growth inhibition” value is reported as inactive: -14.1%. In the case of `CC1(C(=O)NS(=O)(=O)c2ccccc2Cl)CCN1C(=O)C/C=C/c1ccccc1` (configuration not stated), the “activity change, negative = growth inhibition” value is reported as inactive: 3.15%. For `O=C(OCC(=O)N1CCOCC1)c1ccc2[nH]c3c(c2c1)CCCC3`, the Potency was inconclusive: 29.1 µM [inhibitor, single point]. In the case of `COc1ccc(-c2[nH]ncc2CN2CCOc3c(cc(-c4cccc(OC)n4)cc3OC)C2)cc1`, the “activity change, negative = growth inhibition” value is reported as inactive: -27.7%. With `COc1cnn(Cc2ccccc2)c(=O)c1SCc1ccccc1` the Potency was inconclusive: 20.6 µM [inhibitor, single point]. With `Cc1cc(C)cc(NC(=O)CSc2nc(-c3cccc(Cl)c3)nc3c2Cc2c(CO)cnc(C)c2O3)c1` the “activity change, negative = growth inhibition” value was inactive: -2.9%. With `COc1ccc(N(C(=O)c2snc(C(N)=O)c2N)C(C(=O)NCc2ccccc2)c2ccc(F)cc2)c(OC)c1` (configuration not stated) the Potency was inconclusive: 20.6 µM [inhibitor, single point]. In the case of `O=C1CN(C(=O)c2ccc(Br)o2)C(c2ccccc2)c2cc(Br)ccc2N1` (configuration not stated), the Potency is reported as active: 20.6 µM. For `CSc1nc2sc3c(c2c(=O)n1-c1ccc(F)c(Cl)c1)CCN(C(C)=O)C3`, the “activity change, negative = growth inhibition” value was inactive: 2.98%. In the case of `CC1(Cc2ccc(S(C)(=O)=O)cc2)C(=O)Nc2ccc(Cl)cc21` (configuration not stated), the “activity change, negative = growth inhibition” value is reported as inactive: -23.9%. With `COc1cc(/C=N/NC(=O)COc2cc(C)cc(C)c2)ccc1OS(=O)(=O)c1ccc(C)cc1` the Potency was active: 6.51 µM. In the case of `COc1ccc(-c2ccc(CN3C(CC(C)C)C(=O)N(Cc4cn(Cc5ccco5)nn4)CCS3(=O)=O)cc2)cc1OC` (configuration not stated), the Potency is reported as active: 16.4 µM. For `Cc1c(C(=O)NCc2cccc(Cl)c2)sc(=O)n1Cc1ccc(F)cc1`, the Potency was inconclusive: 29.1 µM [inhibitor, single point]. For `COC(=O)c1cc(C#N)c(NCc2ccc(Cl)cc2Cl)nc1C`, the Potency was inconclusive: 14.6 µM [inhibitor, partial curve]. With `CC1CN(C(=O)CCC(=O)NC2CCN(Cc3ccccc3)CC2)c2ccccc2O1` (configuration not stated) the “activity change, negative = growth inhibition” value was inactive: 4.16%. For `COc1cccc(-c2cccc(NC(=O)C3CCN(Cc4ccc(CO)o4)CC3)c2)c1`, the “activity change, negative = growth inhibition” value was inactive: 8.35%. For `CCc1ccc(-n2nc(C)c3c(C(=O)Nc4cc(OC)cc(OC)c4)cc(C)nc32)cc1`, the Potency was inconclusive: 29.1 µM [inhibitor, single point]. In the case of `COc1ccc(N(C2=NCCCS2)S(=O)(=O)c2ccc(C(C)(C)C)cc2)cc1`, the Potency is reported as inconclusive: 32.6 µM [inhibitor, single point]. In the case of `CCOc1ccc(-c2nc(SCC(=O)NCCOC)c(-c3ccc(OC)c(OC)c3)[nH]2)cc1`, the Potency is reported as inconclusive: 10.3 µM [inhibitor, single point]. With `CCN(CC(=O)Nc1cc(Cl)ccc1C)C(=O)COc1cccc2c1OC(C)(C)C2` the Potency was inconclusive: 20.6 µM [inhibitor, single point]. For `CC(c1ccco1)N(C(=O)c1ccc(F)cc1)c1ccccn1` (configuration not stated), the activity change, negative = growth inhibition was inconclusive: -7.82% [inhibitor]. With `Cc1cc(C)c(OCCCCN2CCC(C)CC2)c(Br)c1` the Potency was inconclusive: 16.4 µM [inhibitor, single point]. In the case of `Cc1cc(C(=O)Nn2c(-c3ccc(Br)cc3)nc3ccccc3c2=O)ccc1[N+](=O)[O-]`, the Potency is reported as inconclusive: 29.1 µM [inhibitor, single point]. For `Cc1ccccc1CN(C)CC(=O)NC(C)CCc1ccccc1` (configuration not stated), the Potency was active: 16.4 µM. In the case of `CCN(CC)S(=O)(=O)c1cccc(-c2nn(-c3ccccc3)cc2/C=C(\C#N)C(=O)NCc2ccco2)c1`, the Potency is reported as inconclusive: 13 µM [inhibitor, partial curve]. In the case of `CCOC(=O)C1CCN(C(=O)CN2C(=O)COc3ccc(C(C)(C)C)cc32)CC1`, the Potency is reported as inconclusive: 18.4 µM [inhibitor, single point]. For `O=C(C[N+]12CCCc3cccc(c31)CCC2)c1ccc2ccccc2c1`, the Potency was active: 7.08 µM. For `CC(NC(=O)c1cc2cc(Cl)ccc2oc1=N)c1ccccc1` (configuration not stated), the Potency was inconclusive: 29.1 µM [inhibitor, single point]. For `CCC(C(=O)NC1CCCC1)N(Cc1ccc2c(c1)OCO2)C(=O)c1snc(C(N)=O)c1N` (configuration not stated), the Potency was inconclusive: 23.1 µM [inhibitor, single point]. For `Cc1ccc(C(O)c2ncc(-c3ccccc3C)[nH]2)cc1F` (configuration not stated), the Potency was inconclusive: 29.1 µM [inhibitor, single point]. For `O=C(CSC1=Nc2ccccc2C2=NC(Cc3ccccc3)C(=O)N12)Nc1ccccc1F` (configuration not stated), the Potency was inconclusive: 23.1 µM [inhibitor, single point].

Reference: PubChem BioAssay AID686978 (National Center for Advancing Translational Sciences (NCATS), 2013)
% is scaled to controls: 0 for no effect and ±100 for the full control effect; potency is read from the fitted curve at half-maximal effect; tags tell the direction and shape of the fitted curve.
